In publication PMC12820563:
Some of the results follow. The list includes weakly bound sequences.

target: T1, MBP-FoxP3dN (UniProt Q99JB6); assay: PD-seq (MBP pull-down with sequencing); settings: 20 mM Tris-HCl pH 7.5, 100 mM NaCl, 1.5 mM MgCl2, 0.4 uM protein, 0.1 uM dsDNA library, 30 min, room temperature, amylose pull-down; high values mean tight binding; double strand, one strand shown
T1 sequence: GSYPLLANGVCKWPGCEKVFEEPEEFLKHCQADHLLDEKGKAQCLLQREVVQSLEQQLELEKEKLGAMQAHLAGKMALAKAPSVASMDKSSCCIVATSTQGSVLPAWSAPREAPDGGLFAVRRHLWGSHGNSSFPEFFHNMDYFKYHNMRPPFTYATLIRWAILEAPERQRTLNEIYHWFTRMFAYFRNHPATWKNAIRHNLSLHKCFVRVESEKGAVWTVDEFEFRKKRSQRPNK

Row | Sequence | binding signal (RPM ratio (pull-down/input))
1 | GATGATTGTTCTCCCAGCTGATGAATTGGCCTGATCGAGTAAACAAATTTTCCTAATCTTTCTGTTCAAGCGCCATCTAC | 0.316
2 | GATGATTGTTCTCCCAGCTGATGAATTTGGTACGTCGAGTAAACAAATTTTCCTAATCTTTCTGTTCAAGCGCCATCTAC | 0.73
3 | GATGATTGTTCTCCCAGCTGATGAATTTCCTTGTTCGAGTAAACAAATTTTCCTAATCTTTCTGTTCAAGCGCCATCTAC | 0.417
4 | GATGATTGTTCTCCCAGCTGATGAATTATCCCGGTCGAGTAAACAAATTTTCCTAATCTTTCTGTTCAAGCGCCATCTAC | 0.208
5 | GATGATTGTTCTCCCAGCTGATGAATTTTCACTCTCGAGTAAACAAATTTTCCTAATCTTTCTGTTCAAGCGCCATCTAC | 0.317
6 | GATGATTGTTCTCCCAGCTGATGAATTTGGCCTGTCGAGTAAACAAATTTTCCTAATCTTTCTGTTCAAGCGCCATCTAC | 4.23
7 | GATGATTGTTCTCCCAGCTGATGAATTGAGAGTTTCGAGTAAACAAATTTTCCTAATCTTTCTGTTCAAGCGCCATCTAC | 1
8 | GATGATTGTTCTCCCAGCTGATGAATTAACTCTATCGAGTAAACAAATTTTCCTAATCTTTCTGTTCAAGCGCCATCTAC | 0.363
9 | GATGATTGTTCTCCCAGCTGATGAATTATGAAGCTCGAGTAAACAAATTTTCCTAATCTTTCTGTTCAAGCGCCATCTAC | 0.35
10 | GATGATTGTTCTCCCAGCTGATGAATTCTAAATCTCGAGTAAACAAATTTTCCTAATCTTTCTGTTCAAGCGCCATCTAC | 0.283
11 | GATGATTGTTCTCCCAGCTGATGAATTAATGCACTCGAGTAAACAAATTTTCCTAATCTTTCTGTTCAAGCGCCATCTAC | 2.87
12 | GATGATTGTTCTCCCAGCTGATGAATTAAGAGGCTCGAGTAAACAAATTTTCCTAATCTTTCTGTTCAAGCGCCATCTAC | 0.443
13 | GATGATTGTTCTCCCAGCTGATGAATTAACTTATTCGAGTAAACAAATTTTCCTAATCTTTCTGTTCAAGCGCCATCTAC | 0.531
14 | GATGATTGTTCTCCCAGCTGATGAATTTCGTACTTCGAGTAAACAAATTTTCCTAATCTTTCTGTTCAAGCGCCATCTAC | 0.487
15 | GATGATTGTTCTCCCAGCTGATGAATTCTAGCGATCGAGTAAACAAATTTTCCTAATCTTTCTGTTCAAGCGCCATCTAC | 0.465
16 | GATGATTGTTCTCCCAGCTGATGAATTACAGACGTCGAGTAAACAAATTTTCCTAATCTTTCTGTTCAAGCGCCATCTAC | 0.361

Row | Sequence | binding signal (RPM ratio (pull-down/input))
17 | GATGATTGTTCTCCCAGCTGATGAATTTCCGTCCTCGAGTAAACAAATTTTCCTAATCTTTCTGTTCAAGCGCCATCTAC | 0.344
18 | GATGATTGTTCTCCCAGCTGATGAATTGGCGATGTCGAGTAAACAAATTTTCCTAATCTTTCTGTTCAAGCGCCATCTAC | 0.531
19 | GATGATTGTTCTCCCAGCTGATGAATTTCGGCATTCGAGTAAACAAATTTTCCTAATCTTTCTGTTCAAGCGCCATCTAC | 5.76
20 | GATGATTGTTCTCCCAGCTGATGAATTACGAAAATCGAGTAAACAAATTTTCCTAATCTTTCTGTTCAAGCGCCATCTAC | 0.209
21 | GATGATTGTTCTCCCAGCTGATGAATTCTTTTCTTCGAGTAAACAAATTTTCCTAATCTTTCTGTTCAAGCGCCATCTAC | 0.38
22 | GATGATTGTTCTCCCAGCTGATGAATTTGGGAAGTCGAGTAAACAAATTTTCCTAATCTTTCTGTTCAAGCGCCATCTAC | 0.212
23 | GATGATTGTTCTCCCAGCTGATGAATTCTGGATCTCGAGTAAACAAATTTTCCTAATCTTTCTGTTCAAGCGCCATCTAC | 0.276
24 | GATGATTGTTCTCCCAGCTGATGAATTCAACCTCTCGAGTAAACAAATTTTCCTAATCTTTCTGTTCAAGCGCCATCTAC | 0.388
25 | GATGATTGTTCTCCCAGCTGATGAATTTCTAGAATCGAGTAAACAAATTTTCCTAATCTTTCTGTTCAAGCGCCATCTAC | 0.163
26 | GATGATTGTTCTCCCAGCTGATGAATTGCTGCAGTCGAGTAAACAAATTTTCCTAATCTTTCTGTTCAAGCGCCATCTAC | 0.911
27 | GATGATTGTTCTCCCAGCTGATGAATTTCATCCATCGAGTAAACAAATTTTCCTAATCTTTCTGTTCAAGCGCCATCTAC | 0.429
28 | GATGATTGTTCTCCCAGCTGATGAATTACGCTGATCGAGTAAACAAATTTTCCTAATCTTTCTGTTCAAGCGCCATCTAC | 0.516
29 | GATGATTGTTCTCCCAGCTGATGAATTCTACCATTCGAGTAAACAAATTTTCCTAATCTTTCTGTTCAAGCGCCATCTAC | 0.417
30 | GATGATTGTTCTCCCAGCTGATGAATTTCGTGTTTCGAGTAAACAAATTTTCCTAATCTTTCTGTTCAAGCGCCATCTAC | 1.41
31 | GATGATTGTTCTCCCAGCTGATGAATTAAGTTACTCGAGTAAACAAATTTTCCTAATCTTTCTGTTCAAGCGCCATCTAC | 1.57
